From ChEMBL document CHEMBL4888484, “Replenishing the malaria drug discovery pipeline: Screening and hit evaluation of the MMV Hit Generation Library 1 (HGL1) against asexual blood stage Plasmodium falciparum ,using a nano luciferase reporter read-out” (2022)
Screen size: about 150,000 compounds; about 540 (0.36%) showed an effect of 50% or more. This is one part of the list.

system: Plasmodium falciparum; assay: Primary screen in NF54 nanoGlo assay, in single point, at 2uM, 72h; a lower Z score goes with more inhibition; format: functional, Erythrocyte; details: timepoint 72 hour

Structure (SMILES) | % Inhibition | Z score
Cc1cc(C(=O)N(C)[C@@H](C)c2cc3ccccc3[nH]2)cnc1C | -2% | 0.25
O=C1Nc2ccc(-c3ccc(F)cc3F)cc2C(=O)N2C[C@H](O)C[C@@H]12 | 6% | -1.01
O=C(Nc1ccc(-c2cccc(F)c2)c(F)c1)N1CCO[C@@H](CO)C1 | -6% | 0.65
COC(=O)CCC(C)(C)NC(=O)c1csc(C)n1 | -11% | 1.13
CC(C)c1oncc1NC(=O)c1cc[nH]c(=O)c1 | 10% | -1.91
O=C1CS(=O)(=O)N(Cc2ccccc2F)c2cc(Cl)ccc21 | 2% | -0.18
CCN(CC(=O)Nc1ccc2c(c1)OCCO2)CC(=O)N(CC)C1=CCCCC1 | -6% | 0.7
O=C(NCC1CCCN(c2ccc3ccccc3n2)C1)C1CCCN1 (stereo not given) | -14% | 2.54
Cc1ccc(N(Cc2ccco2)S(=O)(=O)c2cnn(C)c2)cc1 | 0% | -0.01
Cn1nnc(NS(=O)(=O)c2cccc(N)c2)n1 | -6% | 1
CCN(Cc1nc(-c2cccs2)no1)[C@H]1CCOC(C)(C)C1 | -3% | 0.51
CC(C)(C)OC(=O)NCc1ccccc1 | -9% | 1.1
NC(=O)C1CCN(C(=O)c2cnc3ccccc3n2)CC1 | -4% | 0.77
O=C1C2C3CC4C(OC(C42)N1c1ccccc1)C3O (stereo not given) | -12% | 1.13
C=CCN(C)C(=O)Nc1cc(C)ccc1S(C)(=O)=O | -12% | 1.81
Cc1cccc(NS(=O)(=O)c2cc3c(=O)n(C)nc(C)n3c2)c1C | 4% | -0.66
COCCc1nc(Cn2ccnc2)n(Cc2cccc(C)c2)n1 | -6% | 1.04
Cc1ccc(-c2nccn3cc(C(=O)N4CCCCC4)nc23)cc1 | -2% | 0.32
NC(=O)c1cncc(NCC[C@H]2CCCOC2)n1 | -19% | 1.96
c1csc(CNc2nnc([C@@H]3Cc4ccccc4O3)o2)c1 | -12% | 1.5
Cc1ccn(CC(=O)Nc2c(C)nn(C)c2C)c(=O)c1C#N | -4% | 0.71
Cn1c(C(=O)N(CC(=O)O)C2CC2)cc2cc(C(F)(F)F)ccc21 | -14% | 2.69

Structure (SMILES) | % Inhibition | Z score
CN(CC(F)(F)F)C(=O)C1CCCC(C(=O)O)C1 (stereo not given) | -1% | 0.09
O=C(c1nc[nH]n1)N1CCN(C[C@]2(O)CCCN(CCc3ccccc3)C2=O)CC1 | -6% | 1.12
Cc1nnnn1Cc1nnc(C(C)(C)C)o1 | -18% | 2.65
Cc1cc2ncc(CCCNC(=O)CCc3c(F)cccc3Cl)cn2n1 | 6% | -1.16
C[C@H](Oc1ccc(NC(=O)C2CCC=CCC2)cc1F)C(=O)O | -12% | 1.27
Cc1cc(C(=O)NC[C@@H]2CCC[C@H]2O)cnn1 | -11% | 1.51
O=S(=O)(N[C@H]1CCOC[C@@H]1O)c1ccc2c(c1)OCCCO2 | -10% | 2.03
CN(C)c1ccccc1NC(=O)c1ccncc1Cl | -9% | 1.22
Cc1cnc([C@@H](C)CNC(=O)Nc2cc(C3CCC3)nn2C)s1 | -6% | 0.63
O=C(c1ccccc1-n1cncn1)N1CC[C@@]2(CCCN(CC3CC3)C2=O)C1 | -4% | 0.78
Cc1noc(C2(NC(=O)c3cccc(N(C)C)c3)CCOCC2)n1 | -3% | 0.4
CCOC(=O)C(C)(C)C(=O)Nc1cc(S(C)(=O)=O)ccc1Cl | -16% | 2.73
O=S(=O)(CCCCC(F)(F)F)NCCNc1ccccc1 | -5% | 0.63
CCc1[nH]c2ccc(CNC(=O)CCc3c(C)nn(C)c3C)cc2c1C | -10% | 1.27
Cc1oc(C2CCN(C(=O)c3ccc(C(C)C)cc3)CC2)nc1C(=O)N1CCOCC1 | -8% | 1.24
CCC(=O)N1CCC[C@@](NCCN2CCOCC2)(c2nnnn2C2CCCC2)C1 | 11% | -1.89
CC(CN1CCOCC1)C(C)OC(=O)c1ccc(O)cc1O (stereo not given) | -13% | 1.77
Cc1ccc(S(=O)(=O)NCC[C@H](O)C2CCOCC2)cc1 | -11% | 2.18
Cc1nccc([C@H](C)NC(=O)C2(O)CCC(C(F)(F)F)CC2)n1 (stereo not given in full) | 2% | -0.35
c1ccc(OC[C@@H]2CCCN2c2ccc3nnc(C4CC4)n3n2)cc1 | 2% | -0.3
CC(C)Oc1ccnc(NC2CCCCCC2)n1 | -2% | 0.15
CC(C)NC(=O)C[C@@H]1O[C@H](CNS(=O)(=O)c2ccccc2)[C@@H](O)[C@H]1O | 24% | -2.74

Structure (SMILES) | % Inhibition | Z score
O=C([C@@H]1C[C@H](F)CN1S(=O)(=O)Cc1ccccc1)N1CCc2ccccc2C1 | -2% | 0.25
CN(C)[C@H]1CCN(CC(=O)N(Cc2cccnc2)C2CCCCC2)C1 | -5% | 1
CC(C)(C#N)c1ccc(-c2cc3nncn3c(N)n2)cc1 | 3% | -0.39
CCOC1CC2(NC(=O)N(c3cscc3C)C2=O)C1(C)C (stereo not given) | -2% | 0.26
CN(C)c1nccnc1N1CCC[C@H](c2nnc(CN3CCCC3)n2C)C1 | -6% | 1.19
O=C1CCC(C(=O)N2CCCC2CC2CC3CCC2C3)CN1 (stereo not given) | -7% | 1.05
Clc1ccc(COc2cccc(-c3ccnc4ncnn34)c2)c(Cl)c1 | -1% | 0.15
CCc1ccc(OCC(=O)Nc2ccc(-c3nc4cc(CC)ccc4o3)cc2)c(-n2cnnc2)c1 | -13% | 1.7
CCCn1ncc(CN2CCCC23CCN(c2ncccn2)CC3)c1C | -17% | 2.2
O=C(NC1(c2cc(C(F)(F)F)ccc2Cl)CC1)[C@H]1CCCOC1 | 4% | -0.45
CCOc1ccc(NC(=O)c2cn(-c3ncccc3-c3nc(C)no3)cn2)cc1 | -1% | 0.14
CC(C(=O)NCC1CCCCN(C(=O)C(C)C2CC2)C1)C1CC1 (stereo not given) | 15% | -1.96
Cc1cc(NC[C@@H]2C[C@H](F)CN2)nc2cc3c(cc12)CCC3 | -16% | 1.5
N#Cc1nccnc1N1CCC[C@H](S(=O)(=O)N2CCOCC2)C1 | 5% | -0.97
CC(C)(C)c1ccc2c(c1)N(CC(=O)NC1CCCCCCC1)C(=O)CO2 | -14% | 2.04
CCCn1cnnc1[C@H](C)Nc1nc(N)ncc1C | -11% | 1.43
CN(CCNc1ncnc2onc(-c3cc(F)cc(F)c3)c12)Cc1ccccc1 | 1% | -0.07
O=C(OCc1cccc(COC(=O)C2CCCN2c2ncccn2)c1)C1CCCN1c1ncccn1 (stereo not given) | -5% | 0.49
CC(C)n1nccc1C(=O)Nc1nnc(-c2ccn(C)n2)o1 | -5% | 0.85
CC(=O)N1CCC[C@H](C(=O)N2CCCN(C(=O)Cc3cccc(F)c3)CC2)C1 | 6% | -0.73
COCCn1nnc2c1CCN(C(=O)CCc1c[nH]c3ccc(C)cc13)C2 | 0% | -0.02
COc1ccc(OC)c(CNC(=O)C2CCN(c3c(NC(C)=O)c(C)nn3-c3ccc(Cl)cc3)CC2)c1 | -3% | 0.5

Structure (SMILES) | % Inhibition | Z score
CCc1cc(CNc2nccnc2C#N)[nH]n1 | 4% | -0.58
CCc1[nH]c2c(CNC(=O)Cn3ccc(=O)[nH]c3=O)cc(F)cc2c1C | -1% | 0.13
CN(C[C@H]1CCCCO1)C(=O)c1cccc(-c2ccc3nc[nH]c3c2)c1 | -1% | 0.09
CCC1(CN=C(N)N(C)C)CCCCC1 | -6% | 0.65
CC1(C)C(=O)NC(=O)N1Cc1noc(-c2cc(OC(F)F)cc(OC(F)F)c2)n1 | -10% | 0.97
COCc1nc(C)cc(N2C[C@@H]3OC(=O)N(C4CCN(C(C)C)CC4)[C@@H]3C2)n1 | 4% | -0.6
O=C(N[C@H]1CC[C@H](O)CC1)N1CCC(Cc2ccc(F)cc2)CC1 | 0% | 0.08
CCc1nc2c(N3CCN(C(=O)c4cccc(OC)c4)CC3)ncnc2o1 | -12% | 2.12
CN1N=C(C(=O)NCCNc2ncccn2)CCC1=O | -5% | 0.75
COc1cc(Br)ccc1S(=O)(=O)n1cncn1 | -1% | 0.14
C[C@@H](C(N)=O)N(C)CCOc1ccccc1Cl | 5% | -0.7
CC(C)c1nc(C(=O)NC2(CN3CCCC3)CCCCC2)cs1 | -12% | 2.02
O=C(Cc1cnn(-c2ccccc2)c1)NC1CCCCC1 | 30% | -3.88
O=C(c1ccc(F)cc1)N1CCN([C@H](C(=O)N2CCc3ccccc3C2)C2CCCC2)CC1 | 0% | 0.02
CC1(C)COCCN1CCNC(=O)N1CC[C@H](Oc2ccccc2Cl)C1 | -4% | 0.58
Cc1cc(CN2CCN(C(=O)Nc3ccc(=O)n(C)c3)CC2)on1 | -7% | 1.48
Cc1ccccc1NC(=O)C1CCN(c2cc(-c3cccc(F)c3)ncn2)CC1 | -9% | 1.62
Cc1ccc(NC(=O)N2[C@@H]3CC[C@H]2CC(NC(=O)c2ccc(F)cc2)C3)c(C)c1 (stereo not given in full) | -13% | 2.54
CC(=O)N1CCC(Nc2nc3ccccc3s2)CC1 | 3% | -0.37
